Tests used:
[1] = target: T1, recombinant human TNFR2-Fc protein (Sino Biological) (human, UniProt P20333 23-257, limits assumed); test: ELISA, coated TNFR2-Fc
T1 construct: bought; also called human TNFR2 protein; not shown: Fc part of the bought fusion protein; not described
T1 sequence (looked up): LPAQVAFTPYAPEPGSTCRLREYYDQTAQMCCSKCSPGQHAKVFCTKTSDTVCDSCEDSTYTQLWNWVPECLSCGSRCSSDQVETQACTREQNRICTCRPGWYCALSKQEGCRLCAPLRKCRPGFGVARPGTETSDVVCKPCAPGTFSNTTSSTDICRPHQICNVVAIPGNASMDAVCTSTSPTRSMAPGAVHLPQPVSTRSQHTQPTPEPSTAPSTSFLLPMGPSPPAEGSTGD
Method: 96-well plates (Lumitrac 600 LIA plate, Greiner) were coated overnight at 4° C. with recombinant human or mouse TNFR2-Fc protein (Sino Biological) at 1 pmol/well. After washing, titrated doses of anti-TNFR2 mAbs from 20 μg/ml to 0.1 ng/ml (133 nM to 1 pM) were allowed to bind for 1 hour. Plates were then washed again, and bound antibodies were detected with an anti-human-F(ab)-HRP secondary antibody (Jackson ImmunoResearch) diluted in 50 ng/ml. Super Signal ELISA Pico (Thermo Scientific) was used as substrate and the plates were analyzed using Tecan Ultra Microplate reader.

[2] = target: T2, wild type, full length human TNFR2 (on cells) (human, UniProt P20333 23-461); test: FACS, activated CD4+ T cells
T2 construct: whole, on cells; also called hTNFR2; TNFRII
T2 sequence (looked up): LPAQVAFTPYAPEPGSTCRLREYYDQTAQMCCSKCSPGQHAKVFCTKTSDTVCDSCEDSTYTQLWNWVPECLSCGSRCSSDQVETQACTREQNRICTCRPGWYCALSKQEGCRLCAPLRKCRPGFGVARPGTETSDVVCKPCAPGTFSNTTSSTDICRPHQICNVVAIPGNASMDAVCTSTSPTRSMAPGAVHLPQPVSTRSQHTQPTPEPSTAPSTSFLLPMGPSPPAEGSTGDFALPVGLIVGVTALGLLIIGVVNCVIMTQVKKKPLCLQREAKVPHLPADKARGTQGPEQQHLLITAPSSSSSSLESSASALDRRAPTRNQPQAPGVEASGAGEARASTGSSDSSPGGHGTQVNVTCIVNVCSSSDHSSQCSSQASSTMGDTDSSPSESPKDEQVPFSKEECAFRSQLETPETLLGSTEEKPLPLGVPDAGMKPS
Method: The ability and affinity of TNFR2 n-CoDeR® antibodies to bind TNFR2 expressed on cells were obtained using in vitro activated CD4⁺ T cells. Human CD4⁺ T cells were stimulated with 50 ng/ml rhIL-2 (R&D systems) and Dynabeads® T-Activator CD3/CD28 for T-Cell Expansion and Activation (Gibco) 2-3 days at 37 degrees. […] Cells were then incubated with an APC conjugated a-human IgG secondary ab (Jackson) followed by analysis by flow cytometry (FACSVerse, BD).

- EC50 [1]: 0.54 nM
- EC50 [2]: 0.66 nM
B1: 001-G05 (antibody, V domains shown)
VH: EVQLLESGGGLVQPGGSLRLSCAASGFTFSSYAMSWVRQAPGKGLEWVSVISGSGGSTYYAD[… about 20 residues …]MNSLRAEDTAVYYCTTDSGSGSYLWGQGTLVTVSS
VL: QSVLTQPPSASGTPGQRVTISCTGSSSNIGAGYDVHWYQQLPGTAPKLLIYSNNQRPSGVPDRFSGSKSGTSASLAISGLRSEDEADYYCAAWDDSLNGPVFGGGTKLTVLG
notes: IgG

Reference: patent US20220002426A1 (BIOINVENT INTERNATIONAL, published 2022)
